The campaign covered roughly 310,000 compounds. About 14,000 (4.5%) showed an effect of 50% or more. The effect is printed as a negative number. This is one part of the list.
What follows are compounds tested against human ether-à-go-go-related gene (hERG) potassium channel (human, UniProt Q12809) (assay: primary screen, population patch clamp on CHO cells stably expressing hERG).
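Also: peak tail current of the secondary pulse compared with the same well before compound.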

Chain of human ether-à-go-go-related gene (hERG) potassium channel (Q12809 whole entry, looked up): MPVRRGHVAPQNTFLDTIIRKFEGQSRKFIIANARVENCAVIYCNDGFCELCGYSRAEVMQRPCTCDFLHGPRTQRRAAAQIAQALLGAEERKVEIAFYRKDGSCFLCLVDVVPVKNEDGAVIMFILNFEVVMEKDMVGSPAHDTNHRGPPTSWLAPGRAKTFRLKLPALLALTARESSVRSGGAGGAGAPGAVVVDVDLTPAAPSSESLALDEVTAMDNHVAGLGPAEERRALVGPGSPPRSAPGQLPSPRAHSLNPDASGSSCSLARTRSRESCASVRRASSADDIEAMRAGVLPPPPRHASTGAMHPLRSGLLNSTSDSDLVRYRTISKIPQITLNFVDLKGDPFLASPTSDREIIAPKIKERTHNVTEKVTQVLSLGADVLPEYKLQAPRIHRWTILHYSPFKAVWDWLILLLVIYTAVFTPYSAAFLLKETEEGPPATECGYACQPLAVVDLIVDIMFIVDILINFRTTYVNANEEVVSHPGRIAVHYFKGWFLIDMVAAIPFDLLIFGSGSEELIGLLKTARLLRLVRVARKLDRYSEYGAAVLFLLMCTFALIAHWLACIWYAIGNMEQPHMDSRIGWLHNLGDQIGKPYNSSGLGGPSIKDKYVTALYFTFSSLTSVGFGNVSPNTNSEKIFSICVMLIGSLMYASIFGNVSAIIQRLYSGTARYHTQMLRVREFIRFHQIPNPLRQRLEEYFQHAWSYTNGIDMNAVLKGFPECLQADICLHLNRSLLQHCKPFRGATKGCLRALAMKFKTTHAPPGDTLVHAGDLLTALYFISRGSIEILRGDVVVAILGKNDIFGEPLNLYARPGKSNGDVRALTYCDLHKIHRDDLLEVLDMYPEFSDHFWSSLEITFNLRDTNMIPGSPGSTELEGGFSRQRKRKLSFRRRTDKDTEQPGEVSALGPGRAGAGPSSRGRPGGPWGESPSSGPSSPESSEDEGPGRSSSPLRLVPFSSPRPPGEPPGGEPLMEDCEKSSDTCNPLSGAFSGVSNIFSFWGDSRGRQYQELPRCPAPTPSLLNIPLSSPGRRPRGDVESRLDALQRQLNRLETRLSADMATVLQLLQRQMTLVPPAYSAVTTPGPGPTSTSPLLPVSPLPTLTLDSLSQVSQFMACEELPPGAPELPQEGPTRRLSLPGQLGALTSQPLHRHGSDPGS

SMILES	hERG current change (%, negative = inhibition) at 10uM [%]
O=C(O)CN1C(=O)/C(=C/c2ccccc2Cl)Oc2ccccc21	20.8
COc1ccc(OC)c(S(=O)(=O)N2CCN(C)CC2)c1	-1.85
CCOc1ccc(Cc2nnc(SCC(=O)Nc3ccc(OC)cc3)n(N)c2=O)cc1	10.1
O=C(CC1NC(=O)NC1=O)Nc1ccccc1 (centres unmarked)	-0.537
Cc1nc(CNC(=O)CC2C(=O)NCCN2Cc2ccc(F)cc2)cs1 (centres unmarked)	11.9
CCOC(=O)c1cn2cccnc2n1	23.7
COc1ccc(-c2noc(CCC(=O)Nc3cccnc3)n2)cc1OC	-5.98
O=S(=O)(c1ccc2oc3ccc(S(=O)(=O)N4CCCCC4)cc3c2c1)N1CCCCC1	-1.1
O=C1C(Cc2ccc(O)cc2)NC(=S)N1C1CCCCC1 (centres unmarked)	-3.17
CN1CCN(c2nc3c(c(=O)n(C)c(=O)n3C)n2Cc2ccc(F)cc2)CC1	-18.7
CNCCc1c[nH]c2ccccc12	6.05
Cc1ccc(-n2c(C)cc(/C=N/Nc3ccc([N+](=O)[O-])cn3)c2C)cc1	-4.67
CCOc1ccc(N(CC(=O)NCC2CCCO2)C(=O)CCC(=O)Nc2ccccn2)cc1 (centres unmarked)	-34.8
COc1ccc(CC[n+]2cc(/N=C(\C)[O-])on2)cc1OC	-3.39
Cn1c(=O)n(CC(N)=O)c2ccccc21	0.89
CCn1nnc(-c2ccccc2NC(=O)c2cc(OC)cc(OC)c2)n1	20.6
CCOC(=O)N1CCN(C(=O)CCc2c(C)nc3nc(C)nn3c2C)CC1	-22
Cc1sc2ncnc(NCCN3CCOCC3)c2c1C.O=C(O)C(=O)O	-22.4
CCOC(=O)C1=C(C)S/C(=C\N(C)C)C1=O	1.38
Cc1ccc(NC(=O)COc2cccc(Oc3ccccc3)c2)cc1S(=O)(=O)N1CCOCC1	9
CCN(CC)C(=O)c1cccc(NC(=O)C2=COCCO2)c1	6.95
Cc1cccc(C(CC(=O)NCCc2ccccc2)c2ccccc2)c1O (centres unmarked)	-31.6
COc1ccc(CCNC(=O)CC(=O)N/N=C/c2ccc(C(=O)O)cc2)cc1OC	18.8

SMILES	hERG current change (%, negative = inhibition) at 10uM [%]
Cc1nnc(NC(=O)Cc2ccc(OCc3c(C)noc3C)cc2)s1	15.9
COc1ccc(Cl)cc1NS(=O)(=O)c1cc(Br)cnc1N	-8.08
CC(C)(C)NC(=O)/C=N/O	24.4
Cc1cc(C)c(NC(=S)N(CCN2CCCCC2)Cc2ccco2)c(C)c1	-37.9
O=C1C(=O)N(Cc2ccncc2)C(c2ccccc2F)/C1=C(\O)c1ccc2c(c1)OCCO2 (centres unmarked)	14.8
CC(C)c1ccc2occ(-c3nn[nH]n3)c(=O)c2c1	8.11
Cc1ccc(C(=O)/C=C/NNC(=O)c2ccccc2O)cc1	-6.15
O=C(Nc1cccc(NC(=O)c2cccs2)c1)c1cccnc1	-6.06
COc1ccccc1OCc1nnc(SCC(=O)NCc2ccco2)n1-c1ccccc1	-9.19
C/C=C/c1ccc(OCCCCNCc2ccco2)c(OC)c1.O=C(O)C(=O)O	-72.9
CC(=O)c1c(C)[nH]c(C(=O)OCC(=O)Nc2sc3c(c2C#N)CCC(C)C3)c1C (centres unmarked)	17.7
CC12CN3CCN(CC(C3)C1(O)CN1CCOCC1)C2 (centres unmarked)	-1.79
CC(Sc1nc2ccccc2[nH]1)C(=O)Nc1ccc2c(c1)OCCO2 (centres unmarked)	4.29
CCN(C1CCCCC1)S(=O)(=O)c1cc2c3c(c1)CCN3C(=O)CC2	-24.5
COCCNC(=O)COc1ccc(C)cc1C	10.4
CC(=O)Nc1cccc(Nc2nc(-c3cccs3)nc3ccccc23)c1	13.7
CCOC(=O)c1cc2c(=O)c3ccccc3oc2nc1C	8.65
CN(C)S(=O)(=O)c1cccc(-c2csc(N/N=C/c3ccco3)n2)c1	-0.187
CCCOc1ccccc1N/C(N)=N/c1nc(C)cc(C)n1	-85.8
Cc1ccc(Cl)cc1NC(=O)Cn1nc(-c2cccs2)ccc1=O	10.5
O=C(COC(=O)CNS(=O)(=O)/C=C/c1ccccc1)NC1CCS(=O)(=O)C1 (centres unmarked)	17.6
CC1CCC(NC(=O)Cn2ncc3ccccc32)CC1 (centres unmarked)	-2.6
O=C(NC(=S)Nc1ccc(S(=O)(=O)N2CCCCCC2)cc1)c1cccs1	-5.3

SMILES	hERG current change (%, negative = inhibition) at 10uM [%]
COc1cccc(C(=O)C(C#N)=C(SC)SC)c1	-12.4
O=C(O/N=C1\CCCc2ccccc21)c1ccc(F)cc1	-2.99
Cc1cccc(NC(=S)N(C)Cc2cn(C)c3ccccc23)c1	-7.49
Cc1cc(C(=O)CCl)c(C)n1-c1cccc([N+](=O)[O-])c1	11.9
O=C(Nc1ccc(Oc2ccccc2)cc1)C1CCN(c2c3c(nc4ncnn24)CCC3)CC1	-55.6
COc1cccc(C(=O)NC(Cc2ccccc2)c2ccc3c(c2)OCCCO3)c1 (centres unmarked)	3.13
CC1CCN(CC(=O)Nc2nccs2)CC1	13.6
O=S(=O)(Nc1ncccc1O)c1ccc(Cl)cc1	-15.2
O=C(O)CSc1nnc(-c2ccc(Cl)cc2Cl)n1Cc1ccccc1	21.7
O=c1ccc(=O)n2n1CC(O)C2	-13.1
CCOCCCNC(=O)c1cn(C)c(=O)c2cc(OC)c(OC)cc12	4.88
CCCSC1=N/C(=C\c2ccsc2)C(=O)S1	5.62
Cc1cccc(CC(=O)Nc2c3c(nn2-c2cccc(Cl)c2)CS(=O)C3)c1 (centres unmarked)	6.32
COc1ccc(OC)c(-c2csc(NC(=O)CSc3ccccc3)n2)c1	-6.44
COc1ccc(S(=O)(=O)NCCN2CCOCC2)c(C)c1C	0.476
COCCn1c(N)c(S(=O)(=O)c2cccs2)c2nc3ccccc3nc21	-23.1
O=C(O)[C@H](O)[C@@H](O)C(=O)O	6.59
CCOC(=O)C1=C(C)OC(N)=C(C#N)C1c1cccs1 (centres unmarked)	8.62
Cc1cc(Cl)ccc1NC(=O)COC(=O)c1nc2nccc(C)n2n1	-10.2
CCOC(=O)C1CCN(C(=O)c2ccc3c(c2)C(=O)N(c2ccccc2C)C3=O)CC1	-4.68
Cc1cc(C)c2c(N)c(S(=O)c3ccc(C(C)(C)C)cc3)sc2n1 (centres unmarked)	2.49
CC(/C=N/n1c(-c2ccccc2)n[nH]c1=S)=C\c1ccco1	16.1
CCOc1ccc(NC(=O)CSc2nc3nc4c(cc3c(=O)n2CC)COC(C)(C)C4)cc1	0.831

SMILES	hERG current change (%, negative = inhibition) at 10uM [%]
Cn1nc(C(C)(C)C)c([N+](=O)[O-])c1C(=O)N1CCOCC1	17.3
CC(C)CNC(=O)NC(=O)COc1ccc(C=O)cc1	-2.33
CCCCOc1ccc(C(=O)N/C(=C/C=C/c2ccccc2)C(=O)O)cc1	19.8
CC(=O)c1cccc(NC(=O)CSc2nc(N3CCCCC3)nc(N3CCCCC3)n2)c1	20.8
Cc1onc(-c2ccccc2Cl)c1C(=O)N1CCN(Cc2ccc3c(c2)OCO3)CC1	-4.61
CN(Cc1ccc(C#CCCO)cc1)CC1CCCN(CCc2ccc(Cl)cc2)C1 (centres unmarked)	-70.9
O=C(COc1ccc(Br)cc1)N1CCc2ccccc2C1	-22.2
C=CCn1c(=O)c2ccccc2n2c(SCc3c(C(=O)OCC)oc4ccccc34)nnc12	-56.1
CCN(CCO)Cc1csc2ccc(Br)cc12.Cl	-19.3
CC(=O)Nc1cccc(NC(=O)CSc2nc(=O)n(Cc3ccncc3)c3c2CCC3)c1	-0.0125
CCOc1ccc(NC(=O)C2(c3ccc(OC)c(OC)c3)CCCC2)cc1	-21.8
COc1ccc(C(=O)NC(=S)NCc2ccccc2)cc1OC	19.2
CCOC(=O)c1nnn(-c2nonc2-n2cccc2)c1CN1CCOCC1	-18.2
Cc1cccc(NC(=O)N2C3CCCC2CC(NC(=O)C2CC2)C3)c1 (centres unmarked)	0.607
Cc1ccc(-n2ncc3c2CCCC3NC(=O)CCCN2CCCCC2=O)cc1C (centres unmarked)	-15.8
N#CCc1ccc(Oc2ccc([N+](=O)[O-])cn2)cc1	-11
CNC[C@H](CC1CCCCC1)NC[C@H](NCCC1CCCC1)[C@H](C)O	-13
C=CCn1nc([N+](=O)[O-])nc1Sc1cccc2cccnc12	-2.55
COCc1c(C(=O)OCC(=O)NCCN2C(=O)CSC2=O)oc2ccccc12	11.1
CCN(C(=S)Nc1ccc(C(C)=O)cc1)C1CCCCC1	3.5
CC1CCc2nn(CC(=O)Nc3ccc(F)cc3F)cc2C1 (centres unmarked)	-2.61
CCCS(=O)(=O)N1CCCC(C(=O)N2CCN(c3ccccn3)CC2)C1 (centres unmarked)	2.52
CC(=O)Nc1cccc(-c2nc3ccccc3[nH]2)c1	1.87
